Here are results for 48 molecules from PubChem BioAssay AID1508623 (National Center for Advancing Translational Sciences (NCATS), 2021).

Structures are written as SMILES. Screen size: about 48,000 compounds; about 450 (0.94%) were called active. Another 19% or so got no clear call; they are omitted. The call rests on the fitted dose curve; in most records, active means well fitted inhibition curve with a large enough effect; inconclusive means small, poorly fitted or top-dose-only effect; inactive means no such curve, though single readings can be large or run the other way. The list shows a part of the results.

This assay can be described thus: Primary qHTS for Identification of Small Molecule Inhibitors of Huntingtin Promoter Activity. Further: nearly all actives have a fitted effect of over 50% in size. The note with it: HEK293 HTT promoter firefly luciferase reporter (activity 0% = vehicle and -100% = no light), 24 h; series mostly up to 57.5 µM; activity change, negative = inhibition: at the top concentration. The gist of the method:
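Quantitative HTS used concentration series of up to 57.5 uM final on HEK293 luciferase reporter cells, 24 h at 37 degrees C. Readout was Dual-Glo firefly luminescence.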
On the technique in general: Quantitative high-throughput screening tests each substance at several concentrations.
As to `Cc1ccc(Cl)cc1N1CCN(C(=O)c2cc(S(=O)(=O)N3CCCC3)c[nH]2)CC1`, the “activity change, negative = inhibition” value is inactive: -22.1%.

In the case of `CCOC(=O)CNC(c1ccccc1)c1cc(Br)ccc1NC(=O)c1cccc(Cl)c1` (stereo not drawn), the “activity change, negative = inhibition” value was inactive: 0.125%. The result for `CCc1nnc(SCC(=O)N(CC)c2ccccc2)c2cc3oc(C)cc3n12` reads inactive: 0.143%; that for `CC(=O)N1CCCc2cc(S(=O)(=O)N3CCC(C(=O)NCc4ccccc4)CC3)ccc21`, inactive: -18.6%; that for `CCN(Cc1ccccc1)C(=O)Cn1c(=O)n(-c2ccc(Cl)cc2)c(=O)c2c(C)c(C)sc21`, inactive: -5.3%.

On to `Cc1ccc(CN2CCSc3ccc(C(=O)Nc4ccc(C)cc4)cc32)cc1`, for which the “activity change, negative = inhibition” value was inactive: 8.22%.

Take `CCCCN1CCC(CNC(=O)c2c3n(c4ccccc24)CCCO3)CC1`: the “activity change, negative = inhibition” value was inactive: -30.8%. Consider `Cc1ccc(Cn2c(=O)n(Cc3ccco3)c(=O)c3oc4ccccc4c32)cc1`, for which the “activity change, negative = inhibition” value is inactive: -4.79%. In the case of `CCOc1ccc(OCC)c(NC(=O)c2cnc(SC)nc2-c2ccccc2)c1`, the “activity change, negative = inhibition” value was inactive: -21.8%. The result for `C[C@]12CC[C@H]3[C@@H](CCC4=CC(=O)CC[C@@]43C)[C@@H]1CC[C@@H]2C(=O)CO` reads inactive: -12.2%. Turning to `Cc1ccc(C)c(NC(=O)CSc2nc3c([nH]c4ccccc43)c(=O)n2-c2ccc(F)cc2)c1`, the “activity change, negative = inhibition” value is inactive: -8.05%. Next, `Cc1ccc(C)c(Cn2c(=O)n(-c3ccc(Cl)cc3)c(=O)c3c(C)c(C)sc32)c1`: inactive: 0.521%; `COc1ccc(CC(=O)NCC(c2ccc(Cl)cc2)N2CCOCC2)cc1` (stereo not drawn): inactive: -9.41%. For `Cc1ccc(S(=O)(=O)c2nnn3c2nc(NC2CCCCC2)c2sccc23)cc1`, the “activity change, negative = inhibition” value is inactive: -7.4%. Next, `CN(C)S(=O)(=O)c1ccc2c(c1)nnn2CCNC(=O)Nc1ccc(Cl)cc1`: inactive: -14%; `Cc1ccccc1OCc1nc2ccccc2n1Cc1ccccc1Cl`: inactive: -24.1%. Next, `CC(=O)c1ccc(NC(=O)CSc2cn(CC(=O)N(C(C)C)C(C)C)c3ccccc23)cc1`: inactive: -17.7%; `CCCCN(CC)C(=O)CCNS(=O)(=O)c1ccc2c(c1)c(=O)n(C)c(=O)n2C`: inactive: -7.81%; `Cc1cccc(Nc2ccncc2S(=O)(=O)NC(=O)NC(C)C)c1`: “inactive”. As for `CCCNC(=O)C1Cc2cc(S(=O)(=O)N3CCCCCC3)ccc2N1C(C)=O` (stereo not drawn), the “activity change, negative = inhibition” value was inactive: -3.75%. On to `CCCn1cnc2cc(NCc3ccccc3OCC)ccc21`, for which the “activity change, negative = inhibition” value was inactive: -9.38%. The result for `COC(=O)c1ccc(C(=O)OC)c(NC(=O)c2cc3nc(-c4ccc(C)cc4)cc(C(F)(F)F)n3n2)c1` reads inactive: -11.1% [at 11.5 µM]; that for `COCCCNC(=O)c1sc2nc(C)c(C(=O)Nc3ccc(C)cc3C)c(-c3ccccc3Cl)c2c1N`, inactive: -22.5%. For `CCc1ccc2oc(-c3ccc(NC(=O)c4cc5ccccc5o4)cc3)nc2c1`, the “activity change, negative = inhibition” value was inactive: 13.1%.

For the molecule `CCCNC(=O)CCCN1C(=O)CCn2nc(-c3cccn3C)cc21`, the “activity change, negative = inhibition” value is inactive: 0%. As for `COc1ccc(C(=O)NCc2ccc3c(c2)CCN3C(=O)c2ccccc2)cc1`, the “activity change, negative = inhibition” value was inactive: -1.62%. Next, `COCCNC(=O)c1nn(-c2ccc(C)cc2)c(=O)n(C)c1=O`: inactive: -7.87%; `COc1ccc(C(CNC(=O)c2oc3cc(C)c(Cl)cc3c2C)N2CCCCC2)cc1` (stereo not drawn): inactive: -2.32%; `COCCNC(=O)CCc1c(C)n(C)c2cc(-c3cc(OC)c(OC)c(OC)c3)nn2c1=O`: inactive: -0.479%. Take `CC1CCN(S(=O)(=O)c2ccc3nc(NCc4ccccc4)ccc3c2)CC1`: the “activity change, negative = inhibition” value is inactive: -1.92%.

Consider `Cn1c(=O)c(=O)n(C)c2cc(C(=O)NCc3ccccc3Cl)ccc21`, for which the “activity change, negative = inhibition” value is inactive: -13.9%. `COc1cccc(Nc2nc3ccccc3c3nncn23)c1`: the “activity change, negative = inhibition” value was inactive: -14.9%. The result for `Cn1c(SCc2cc(=O)c3cc(Cl)ccc3[nH]2)nnc1-c1ccccc1` reads inactive: -25.1%; that for `O=C(NCc1ccccc1Cl)c1c2c(nc3ccccc13)C(=O)N(C1CCCCC1)C2`, inactive: -13%; that for `CCCCC(=O)Nc1ccc(OCc2cc(=O)n3c(C)csc3n2)cc1`, inactive: 5.72%.

Turning to `CCN(CC)c1ccc(C2C(C(=O)Nc3ccccc3C)=C(C)Nc3ncnn32)cc1` (stereo not drawn), the “activity change, negative = inhibition” value is inactive: -9.11%. Next, `COC(=O)CCCCCn1c(-c2ccccc2)cn2c3c(=O)n(C)c(=O)n(C)c3nc12`: inactive: -2.41%; `COc1ccc(OC)c(C(=O)CSc2ncc3c(n2)-c2ccccc2N(Cc2ccccc2C)S3(=O)=O)c1`: inactive: -6.56%. `Cc1ccn2c(=O)cc(CSc3nnc(C)s3)nc2c1`: the “activity change, negative = inhibition” value was inactive: 28.9%.

Consider `Cc1cc2c(cc1NC(=O)c1ccccc1Cl)n(C)c(=O)c(=O)n2C`, for which the “activity change, negative = inhibition” value was inactive: 2.35%. `CCN(Cc1ccccc1)Cc1c(O)ccc2c(=O)c(-c3ccc(Cl)cc3)c(C(F)(F)F)oc12`: the “activity change, negative = inhibition” value is inactive: -25.5%. Next, `CCN(CC)CCCNC(=O)c1cn(CC(C)C)c(=O)c2c1c1ccccc1n2C`: inactive: 11.2%; `COc1ccc(-c2nnc(SCC(=O)N3CCc4ccccc43)o2)cc1OC`: inactive: -7.43%; `Cc1ccc2nc(-c3ccsc3)c(Nc3ccc(Cl)cc3)n2c1`: inactive: -8.69%. For the molecule `Cc1cccc(-c2noc(-c3ccccc3OCC(=O)Nc3ccccc3[N+](=O)[O-])n2)c1`, the “activity change, negative = inhibition” value is inactive: -8.01%. Consider `Cc1ccn2cc(CNC(=O)c3cccc(C(F)(F)F)c3)nc2c1`, for which the “activity change, negative = inhibition” value is inactive: -21%. The result for `CC(=O)c1cccc(NC(=O)[C@H]2O[C@@H]3OC(C)(C)O[C@@H]3[C@H]3OC(C)(C)O[C@H]32)c1` reads inactive: -9.24%. The result for `CCOC(=O)c1ccc(NC(=O)C(C)Sc2nc(=O)cc(N)n2CCc2ccccc2)cc1` (stereo not drawn) reads inactive: -10.8%.
